This is one part of the list. Values were computed here from the reads of four pooled replicates and scatter widely.

In the test the target is T1, Pho4 (S. cerevisiae) (UniProt P07270).
T1 sequence: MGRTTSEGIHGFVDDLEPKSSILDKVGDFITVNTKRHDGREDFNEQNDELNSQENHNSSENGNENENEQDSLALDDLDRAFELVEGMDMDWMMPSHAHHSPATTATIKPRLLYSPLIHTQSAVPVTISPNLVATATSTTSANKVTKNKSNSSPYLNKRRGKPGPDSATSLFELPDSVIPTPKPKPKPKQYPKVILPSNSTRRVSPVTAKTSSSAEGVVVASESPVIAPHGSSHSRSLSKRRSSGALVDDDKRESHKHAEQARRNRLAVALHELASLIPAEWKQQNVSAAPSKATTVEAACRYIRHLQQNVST
In words: relative binding free energy (BET-seq); higher = weaker binding. The settings on record: reference: library average.
On to CGTCACACGTGGTGGT, for which the “relative binding free energy” value was -0.02 kcal/mol.
As for ATGTACACGTGGAGGG, the figure is -0.06 kcal/mol; as for GAGGCCACGTGGGGCT, -0.27 kcal/mol.
As for AATGTCACGTGTGGGC, the figure is 0.12 kcal/mol; as for AGGTTCACGTGAATGT, 0.46 kcal/mol; as for AAGGGCACGTGAGTAT, 0.1 kcal/mol.
As for TTGAGCACGTGAATAG, the figure is 0.08 kcal/mol.
In the case of TCGTGCACGTGGGGCT, the “relative binding free energy” value was -0.2 kcal/mol.
With TGCTTCACGTGATTTA, the “relative binding free energy” value was 0.36 kcal/mol.
Then GAGTGCACGTGTTTGT, with 0.08 kcal/mol; and CGTGTCACGTGCGGAG, with 0 kcal/mol; and TAGGGCACGTGTATAT, with -0.11 kcal/mol.
Then ATAGGCACGTGTAAGT, with 0.11 kcal/mol; and GGGGACACGTGTGGCT, with -0.03 kcal/mol; and TTTCGCACGTGTATAA, with 0 kcal/mol.
Consider GGCCTCACGTGGTTGG, for which the “relative binding free energy” value worked out at 0.26 kcal/mol.
Then GTGGTCACGTGATCTG, with 0.18 kcal/mol; and CGGTGCACGTGAGGCG, with 0.17 kcal/mol; and TGAGGCACGTGGTTGA, with -0.18 kcal/mol.
Regarding TGTAGCACGTGATAGG, the “relative binding free energy” value was -0.04 kcal/mol.
With AAGGTCACGTGTGTGC, the “relative binding free energy” value was 0.16 kcal/mol.
As for AAGGGCACGTGGGATA, the figure is -0.21 kcal/mol; as for GGGAGCACGTGGACGG, 0.03 kcal/mol.
As for ATATACACGTGAAGAT, the figure is 0.39 kcal/mol; as for GTAGTCACGTGTAAGA, 0.24 kcal/mol.
As for TAATGCACGTGTAATG, the figure is 0.05 kcal/mol; as for GCTGGCACGTGATTTT, -0.04 kcal/mol; as for GTTTGCACGTGTAGCG, 0.24 kcal/mol.
Regarding GTATTCACGTGCTGGA, the “relative binding free energy” value was 0.16 kcal/mol.
As for TTATACACGTGGATTA, the figure is -0.01 kcal/mol; as for TTCTGCACGTGAAGGG, 0.32 kcal/mol.
Then AAGGTCACGTGTCGGA, with 0.01 kcal/mol; and TGGTTCACGTGAATAA, with 0.41 kcal/mol; and ATGAGCACGTGTTTTA, with -0.14 kcal/mol.
TTGATCACGTGATGAA: the “relative binding free energy” value amounted to 0.31 kcal/mol.
Then TTTTGCACGTGATTAA, with 0.2 kcal/mol; and TTCTTCACGTGGTAGA, with 0.42 kcal/mol.
Turning to CGGGTCACGTGTTGTG, the “relative binding free energy” value is 0.15 kcal/mol.
Then CGTATCACGTGCGTTT, with 0.25 kcal/mol; and CTTGGCACGTGTAAGG, with 0 kcal/mol.
Regarding GGCTACACGTGTGGCG, the “relative binding free energy” value was 0.22 kcal/mol.
Then CTTATCACGTGCGGTG, with 0.16 kcal/mol; and GTGCTCACGTGGTATT, with 0.16 kcal/mol.
Then GAGGGCACGTGGGAAG, with -0.07 kcal/mol; and GGCTACACGTGGTGCG, with 0.11 kcal/mol.
Then AAAGTCACGTGGGATA, with 0.02 kcal/mol.
Regarding TGTATCACGTGTACGT, the “relative binding free energy” value is 0.05 kcal/mol.
Then TACCTCACGTGTGGTG, with 0.24 kcal/mol.
As for GCATACACGTGTGGGT, the figure is 0.12 kcal/mol; as for TTCTGCACGTGCGGTG, -0.08 kcal/mol.
Take AGCTTCACGTGGTATT: the “relative binding free energy” value worked out at 0.18 kcal/mol.
As for ATTCGCACGTGCAGTT, the figure is 0.13 kcal/mol.
As to GGGTGCACGTGTGATC, the “relative binding free energy” value was determined as 0.08 kcal/mol.
Consider ATATTCACGTGCTTGT, for which the “relative binding free energy” value was 0.16 kcal/mol.
Regarding GGTTTCACGTGCACTT, the “relative binding free energy” value was 0.38 kcal/mol.
As for TTTTCCACGTGTGTTA, the figure is 0.03 kcal/mol; as for AAAATCACGTGACTGG, 0.42 kcal/mol.
As for GAATTCACGTGTGGTT, the figure is 0.36 kcal/mol; as for TTCATCACGTGTTATT, 0.23 kcal/mol.
As for TTGCGCACGTGAAGTT, the figure is 0.02 kcal/mol.
As to TAATTCACGTGGTTCA, the “relative binding free energy” value was determined as 0.15 kcal/mol.
Then TTATGCACGTGGCTAT, with -0.22 kcal/mol; and TGATTCACGTGGGGTG, with 0.09 kcal/mol.
On to TTGCACACGTGTTGAT, for which the “relative binding free energy” value is 0.09 kcal/mol.
With TCGGTCACGTGATTAT, the “relative binding free energy” value came to 0.17 kcal/mol.
As for GCGGTCACGTGGGGAA, the figure is 0.08 kcal/mol.
Then GTGTGCACGTGGGCCG, with -0.13 kcal/mol; and AGTTGCACGTGTCGAT, with 0.08 kcal/mol.
As for TTGTGCACGTGGGTAT, the figure is -0.1 kcal/mol; as for TACGGCACGTGGGAAG, -0.17 kcal/mol; as for ATAGGCACGTGCGGGT, -0.17 kcal/mol.
Turning to TGGAGCACGTGAAGTG, the “relative binding free energy” value stood at 0.12 kcal/mol.
Then TTGTGCACGTGGCCGT, with -0.15 kcal/mol.
Then AAGGTCACGTGTTGGG, with 0.25 kcal/mol.
CGTATCACGTGAAGGG: the “relative binding free energy” value stood at 0.24 kcal/mol.
As for AATTACACGTGATGGA, the figure is 0.24 kcal/mol; as for CAAGTCACGTGGAGGT, -0.02 kcal/mol.
Then GCTAGCACGTGCGGTG, with -0.12 kcal/mol; and ACAATCACGTGTGTGT, with 0.18 kcal/mol; and CGAGGCACGTGGAGGA, with -0.13 kcal/mol.
Then TATCGCACGTGAGGTG, with 0.03 kcal/mol; and TCGGTCACGTGGTGTC, with 0.06 kcal/mol.
GTTAGCACGTGCGCGG: the “relative binding free energy” value is -0.13 kcal/mol.
As for GTTTCCACGTGAGTGT, the “relative binding free energy” value came to 0.26 kcal/mol.
As for CTGAGCACGTGGGGGA, the figure is -0.26 kcal/mol; as for ATGATCACGTGTTGAT, 0.19 kcal/mol; as for AAGGACACGTGGTGTA, 0.02 kcal/mol.
Consider TCGTTCACGTGTTGGT, for which the “relative binding free energy” value turned out to be 0.31 kcal/mol.
Then CGTGTCACGTGTATAG, with -0.01 kcal/mol; and GCGGTCACGTGTTTTA, with 0.15 kcal/mol.
As for CGTGTCACGTGATGTC, the figure is 0.28 kcal/mol; as for GTGTTCACGTGCGTTA, 0.2 kcal/mol.
As for TTTGGCACGTGGAAGT, the “relative binding free energy” value is -0.02 kcal/mol.
On to GGGTTCACGTGGGTAG, for which the “relative binding free energy” value worked out at 0.24 kcal/mol.
As for ATATACACGTGGTTGT, the figure is -0.12 kcal/mol.
Then TGGGCCACGTGCGGTA, with -0.12 kcal/mol; and GAAAGCACGTGGTGTG, with -0.14 kcal/mol; and AGTGGCACGTGAATAT, with 0.24 kcal/mol.
Regarding AAAGTCACGTGCGGGG, the “relative binding free energy” value was 0.08 kcal/mol.
With AGCGTCACGTGTCGGT, the “relative binding free energy” value came to 0.18 kcal/mol.
For GTTGTCACGTGGACGT, the “relative binding free energy” value was determined as 0.07 kcal/mol.
Consider TTGCTCACGTGATAGT, for which the “relative binding free energy” value was found to be 0.47 kcal/mol.
Then ATTAACACGTGTGACG, with 0.14 kcal/mol; and TATTGCACGTGCTGGA, with 0 kcal/mol.
As for TGAGTCACGTGTTCGG, the figure is 0.15 kcal/mol; as for GAGGGCACGTGGGGCA, -0.36 kcal/mol.
Then TGGATCACGTGTGTAG, with 0.26 kcal/mol; and ATGTGCACGTGAGGTC, with 0.09 kcal/mol.
In the case of ATTAACACGTGAGTTG, the “relative binding free energy” value worked out at 0.23 kcal/mol.
For the sequence TGTCTCACGTGATTGA, the “relative binding free energy” value is 0.38 kcal/mol.
As to CTTCGCACGTGGGGTT, the “relative binding free energy” value is -0.2 kcal/mol.
As for GTACTCACGTGTTTTT, the figure is 0.19 kcal/mol; as for CGGGGCACGTGTGATC, -0.04 kcal/mol; as for TTTTTCACGTGTCACG, 0.26 kcal/mol.
With TTGGTCACGTGGCAGT, the “relative binding free energy” value amounted to 0.14 kcal/mol.

The values above are taken from the BET-seq Pho4 binding data (Le et al. 2018).
